Test results taken from PubChem BioAssay AID504845 (National Center for Advancing Translational Sciences (NCATS), 2011).
Where “and” joins values, the source holds several entries; their conditions need not be identical. Identical values can stand only once. In all, about 390,000 compounds went through this assay and about 150 (0.038%) were called active. This list was built around the results that the source calls inconclusive (neither active nor inactive); the mix of calls is not that of the screen. Calls come from the whole dose curve; as a rule, active = well fitted inhibition curve with a large enough effect; inconclusive = small, poorly fitted or top-dose-only effect; inactive = no such curve, though single readings can be large or run the other way. A potency beside an inconclusive call is a rough fit, not a confirmed value.

These compounds were tested against Regulator of G-protein signaling 4 (Homo sapiens) (UniProt P49798) (assay: Inhibitors of Regulator of G Protein Signaling (RGS) 4: qHTS). Details: Transcreener GDP fluorescence polarization, RGS4-accelerated GTP hydrolysis; series mostly up to 114 µM.
Procedure, shortened: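 MLSMR compounds (23 nl, pin-transferred) preincubated 10 min at room temperature with a 500nM (2x) first reagent, then RGS4 at 900nM (2x) plus Transcreener GDP mix added; fluorescence polarization (620/688 nm) read before and after 90 min at 30 °C.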
% is set by controls: 0 for no effect and ±100 for the full control effect; potency is the fitted concentration of half-maximal effect; tags give direction and shape of the fitted curve.
Note: nearly all actives have a fitted effect of over 75% in size.

Sequence of UniProt P49798 (P49798 whole entry, looked up): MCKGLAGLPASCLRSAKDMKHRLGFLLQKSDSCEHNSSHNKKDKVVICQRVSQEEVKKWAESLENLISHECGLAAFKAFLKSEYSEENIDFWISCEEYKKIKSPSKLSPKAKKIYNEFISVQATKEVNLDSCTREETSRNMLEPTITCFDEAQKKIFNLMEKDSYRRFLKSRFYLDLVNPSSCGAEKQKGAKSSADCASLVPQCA

SMILES | Potency | activity change, negative = inhibition
Cc1ccc(S(=O)(=O)Nc2ccc(NC(=O)c3cccnc3)cc2)cc1 | inconclusive: 89.1 µM [inhibitor, single point] | –
N#CC(C#N)=C(N)/C(C#N)=C/c1cc(O)c(O)c(O)c1 | inconclusive: 2.38 µM [inhibitor, partial curve, poor fit] | –
COc1ccc2[nH]c(=O)c(CNC3CCCCC3)cc2c1 | inactive | –
N#C/C(=C\c1ccc(O)c(Br)c1)C(=O)NCc1ccccc1 | inactive | –
CCOC(=O)c1c(C)[nH]c(C(=O)COC(=O)COc2ccccc2C=O)c1C | inconclusive: 31.6 µM [inhibitor, full curve, poor fit] | –
COc1cc(/C=C/C(=O)O)cc(S(=O)(=O)NCCCC(=O)O)c1OC | inactive | –
O=C(C1=C[C@@H]2[C@H]3C(=O)N(c4cccc(Cl)c4)C(=O)[C@H]3[C@@H](C(=O)c3ccc(Cl)cc3)N2C=C1)c1ccccc1 | inconclusive: 50.1 µM [inhibitor, partial curve, poor fit] | –
O=C(c1ccccc1)c1ccccc1C(=O)N1CCOCC1 | inactive | –
Cc1c(Cc2ccccc2)sc(NC(=O)/C=C/c2cccc3ccccc23)c1C(N)=O | inconclusive: 28.2 µM [inhibitor, full curve, poor fit] | –
Cc1c(Cl)cccc1NC(CC(=O)c1ccccc1)C(=O)OCC(=O)c1cccs1 (stereo not given) | inconclusive: 50.1 µM [inhibitor, partial curve, poor fit] | –
Cc1ccc(-c2nc3cnccn3c2Nc2c(C)cccc2C)o1 | inactive and inconclusive: 17.8 µM [inhibitor, full curve, poor fit] | –
COc1cccc(NC(=O)CN(c2ccc3c(c2)OCO3)S(C)(=O)=O)c1 | inconclusive: 89.1 µM [inhibitor, single point] | –
O=C(CCNC(=O)c1ccccc1Cl)Nc1cccc(S(=O)(=O)N2CCCCC2)c1 | inactive | –
Cc1cc(C(F)(F)F)c2sc(N)nc2n1 | inactive | –
COc1ccc(Oc2c(O)c3ccccc3n(C)c2=O)cc1 | inconclusive: 70.8 µM [inhibitor, single point] | –
O=C(O)c1ccc(N2CC3CC(C2)c2cccc(=O)n2C3)c(NC(=S)Nc2ccc(Br)cc2)c1 (stereo not given) | inconclusive: 89.1 µM [inhibitor, partial curve, poor fit] | –
O=C(NC1CCCCC1)c1cccc(Cn2cc(Cl)cn2)c1 | inactive | –
S=C(c1nc2ccccc2[nH]1)N1CCOCC1 | inconclusive: 50.1 µM [inhibitor, partial curve, poor fit] | –
Cc1ccc(C)c(NC(=S)/C(=C(\[O-])c2ccc(Cl)s2)[n+]2ccccc2)c1 | inactive | –
Cc1cc(Nc2ccc(C(C)C)cc2)n2ncnc2n1 | inactive | –
CN(C)/C=N/c1nc2nccc(-c3cccc(Cl)c3)n2n1 | inconclusive: 70.8 µM [inhibitor, single point] | –
Cc1nc(NC(=O)COC(=O)/C=C/c2ccco2)c(Cl)cc1Cl | inconclusive: 28.2 µM [inhibitor, full curve, poor fit] | –
Cc1nc(N2CCN(C(=O)c3cccs3)CC2)c2c3c(sc2n1)CCCC3 | inactive | –

SMILES | Potency | activity change, negative = inhibition
CC(C)CC[n+]1ccccc1/C=C/c1ccc(N(C)C)cc1 | inactive | –
Cc1noc(NS(=O)(=O)c2ccc(NC(=O)CSc3nc4ccccc4s3)cc2)c1C | inconclusive: 31.6 µM [inhibitor, full curve, poor fit] | –
CCN(CC)CCCCCCCCOC(=O)c1cc(OC)c(OC)c(OC)c1 | inconclusive: 2.67 µM [inhibitor, partial curve] | –
CCCN(CCC)Cc1c(C(=O)N/N=C/c2ccco2)nnn1-c1nonc1N | inactive | –
Cc1ccc(N2NC(C)(c3cccs3)NC2=S)cc1 (stereo not given) | inconclusive: 79.4 µM [inhibitor, partial curve, poor fit] | –
N#C/C(C(=O)Nc1ccc(Cl)cc1)=C(/S)Nc1ccccc1 | inconclusive: 28.2 µM [inhibitor, full curve, poor fit] | –
COc1ccc(C(=O)Oc2c(CN3CCOCC3)cc(Cl)c3cccnc23)cc1 | inactive | –
CCCC(=O)Nc1ccc2oc(-c3cncc(Br)c3)nc2c1 | inactive | –
Cc1cc2cc(C(c3nnnn3Cc3ccco3)N3CCc4ccccc43)c(=O)[nH]c2cc1C (stereo not given) | inconclusive: 28.2 µM [inhibitor, full curve, poor fit] | –
CCCCN(CCCNc1ncnc2nc[nH]c12)c1ccccc1 | inactive | –
Cc1cc(=O)n2cccc(O)c2n1 | inconclusive: 44.7 µM [inhibitor, partial curve, poor fit] | –
Nc1ccccc1C(=O)C[C@@H](N)C(=O)O | inconclusive: 37.7 µM [inhibitor, partial curve, poor fit] | –
Cc1ccc(-c2nc(N/N=C/c3ccncc3)c3ccccc3n2)cc1 | inconclusive: 39.8 µM [inhibitor, partial curve, poor fit] | –
CCCN(CCC)S(=O)(=O)c1ccc(NC(=O)Cc2cccs2)cc1 | inconclusive: 89.1 µM [inhibitor, single point] | –
CC(C)(C)OC(=O)N1CCCC1C(=O)NC1COC2CC(n3cc(F)c(=O)[nH]c3=O)OC12 (stereo not given) | inactive | –
CCN(CC)CCCNC(=O)CSc1c2c(nc3cc(Cl)ccc13)CCCC2 | inactive | –
Cc1cc(C)nc(NC(=O)CSc2nn(-c3ccccc3)c(=S)s2)n1 | inconclusive: 44.7 µM [inhibitor, partial curve, poor fit] | –
S=c1[nH]nc(COc2ccccc2)n1/N=C/C=C/c1ccccc1 | inconclusive: 100 µM [inhibitor, partial curve, poor fit] | –
Cc1oc(-c2cccs2)nc1CN1CC[C@@](O)(c2ccccc2)[C@H]2CCCC[C@@H]21 | inactive | –
CCCOC(=O)C1=C(C)NC(=O)NC1c1ccc(Br)s1 (stereo not given) | inconclusive: 56.2 µM [inhibitor, partial curve, poor fit] | –
CN(C)Cc1c(O)ccc2ccccc12 | – | inactive: 5.78% [at 11.4 µM]
c1ccc(C[C@H]2CNCCN2CCc2cccc3ccccc23)cc1 | inactive | –
